Data as given in the supplement of paper PMC7266297.
Counter-ions that a name gives are not always drawn. The list shows a part of the results. Many values rest on one well or one pass, so single values are uncertain.

What was measured:
KB-3-1 = experiment: growth inhibition relative to DMSO control (SRB); cervical cancer cells: KB-3-1 is the parent and KB-V1 overexpresses MDR1; SRB is the sulforhodamine B stain; higher = more growth inhibition; conditions: 1 µM; 72 h
KB-V1 = experiment: as above; conditions: 1 µM; 72 h
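Also: Read-out is SRB optical density at 490 nm, with the control being wells given 0.5% DMSO vehicle, and compound added one day after cells were plated.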

C[C@@H](Oc1cc(-c2cnn(C3CCNCC3)c2)cnc1N)c1c(Cl)ccc(F)c1Cl
growth inhibition (KB-3-1): 84.2%
growth inhibition (KB-V1): 70.5%

CC[C@H](C)C(=O)O[C@H]1C[C@@H](C)C=C2C=C[C@H](C)[C@H](CC[C@@H]3C[C@@H](O)CC(=O)O3)[C@H]21 [Lovastatin]
growth inhibition (KB-3-1): 20.6%
growth inhibition (KB-V1): 22.9%

c1ccc(NCc2ccc(CNc3ccccn3)cc2)nc1
growth inhibition (KB-3-1): < 0%
growth inhibition (KB-V1): 9.35%

CN(C)Cc1cccc(N=C(c2ccccc2)c2c(O)[nH]c3cc(C(=O)N(C)C)ccc23)c1
growth inhibition (KB-3-1): 19.7%
growth inhibition (KB-V1): 18.8%

CC(C)(Oc1ccc(C2CC2(Cl)Cl)cc1)C(=O)O (stereo unspecified) [Ciprofibrate]
growth inhibition (KB-3-1): 11.1%
growth inhibition (KB-V1): 12.5%

Cc1cccc(-c2[nH]c(C(C)(C)C)nc2-c2ccc3nccnc3c2)n1
growth inhibition (KB-3-1): 54.1%
growth inhibition (KB-V1): 57.9%

COc1cc2nccc(Oc3ccc(NC(=O)C4(C(=O)Nc5ccc(F)cc5)CC4)cc3)c2cc1OC
growth inhibition (KB-3-1): 38.1%
growth inhibition (KB-V1): 61.6%

COc1ccc(C2CNC(=O)C2)cc1OC1CCCC1 (stereo unspecified) [Rolipram]
growth inhibition (KB-3-1): 16.5%
growth inhibition (KB-V1): 31%

CN(NC(=O)CC(=O)NN(C)C(=S)c1ccccc1)C(=S)c1ccccc1 [Elesclomol (STA-4783)]
growth inhibition (KB-3-1): 97.3%
growth inhibition (KB-V1): 99.2%

CC(=O)O[C@]1(C(C)=O)CC[C@H]2[C@@H]3C[C@H](C)C4=CC(=O)CC[C@]4(C)[C@H]3CC[C@@]21C [Medroxyprogesterone acetate]
growth inhibition (KB-3-1): 28.4%
growth inhibition (KB-V1): 6.38%

CC1CCc2cc(F)cc3c(=O)c(C(=O)O)cn1c23 (stereo unspecified) [Flumequine]
growth inhibition (KB-3-1): < 0%
growth inhibition (KB-V1): 9.02%

OCCOCCN1CCN(C(c2ccccc2)c2ccc(Cl)cc2)CC1 (stereo unspecified) [Hydroxyzine 2HCl]
growth inhibition (KB-3-1): < 0%
growth inhibition (KB-V1): < 0%

COc1cc(OC)c2c(=O)[nH]c(-c3cc(C)c(OCCO)c(C)c3)nc2c1
growth inhibition (KB-3-1): 13.5%
growth inhibition (KB-V1): 7.45%

COC(=O)c1ccc2c(c1)NC(=O)/C2=C(\Nc1ccc(N(C)C(=O)CN2CCN(C)CC2)cc1)c1ccccc1 [Nintedanib (BIBF 1120)]
growth inhibition (KB-3-1): 36%
growth inhibition (KB-V1): 27.1%

COc1c(C)c2c(c(O)c1C/C=C(\C)CCC(=O)OCCN1CCOCC1)C(=O)OC2 [Mycophenolate Mofetil]
growth inhibition (KB-3-1): 48.5%
growth inhibition (KB-V1): 46.6%

CC(C)c1cnn2c(NCc3ccccc3)cc(NCCCCCCN)nc12
growth inhibition (KB-3-1): 21.5%
growth inhibition (KB-V1): 13.5%

S=C(NCc1ccc2c(c1)OCO2)N1CCN(c2ncnc3c2oc2ccccc23)CC1 [Amuvatinib (MP-470)]
growth inhibition (KB-3-1): 31.5%
growth inhibition (KB-V1): 44%

CC(=O)[C@]1(O)Cc2c(O)c3c(c(O)c2[C@@H](O[C@H]2C[C@H](N)[C@H](O)[C@H](C)O2)C1)C(=O)c1ccccc1C3=O [Idarubicin HCl]
growth inhibition (KB-3-1): 87%
growth inhibition (KB-V1): 64%

COc1cc(NC(=O)c2ccccn2)ccc1Cl
growth inhibition (KB-3-1): 18.3%
growth inhibition (KB-V1): 6.7%

O=c1ncccn1[C@@H]1O[C@H](CO)[C@@H](O)[C@H]1O [Zebularine]
growth inhibition (KB-3-1): 4.69%
growth inhibition (KB-V1): 16.1%

CN(C)Cc1ccc(-c2nc3cccc4c3n2CCNC4=O)cc1
growth inhibition (KB-3-1): < 0%
growth inhibition (KB-V1): 32.7%

CC/C(=C(\c1ccccc1)c1ccc(OCCN(C)C)cc1)c1ccccc1 [Tamoxifen Citrate]
growth inhibition (KB-3-1): 52.2%
growth inhibition (KB-V1): 23.3%

N#CCNC(=O)c1ccc(-c2ccnc(Nc3ccc(N4CCOCC4)cc3)n2)cc1
growth inhibition (KB-3-1): < 0%
growth inhibition (KB-V1): 40.2%

O=C(Nc1ccc(-c2ccnc(Nc3ccc(N4CCOCC4)cc3)n2)cc1)C1CCCN1 (stereo unspecified)
growth inhibition (KB-3-1): 44.4%
growth inhibition (KB-V1): 16.1%

C[C@H]1[C@H](C)CC[C@]2(C(=O)O)CC[C@]3(C)C(=CC[C@@H]4[C@@]5(C)C[C@@H](O)[C@H](O)[C@@](C)(CO)[C@@H]5CC[C@]43C)[C@H]12 [Asiatic Acid]
growth inhibition (KB-3-1): < 0%
growth inhibition (KB-V1): 36.4%

CNCc1cc(-c2ccccc2F)n(S(=O)(=O)c2cccnc2)c1
growth inhibition (KB-3-1): 50.1%
growth inhibition (KB-V1): 15.4%

O=C(Nc1ccccc1-c1cn2c(CN3CCNCC3)csc2n1)c1cnc2ccccc2n1
growth inhibition (KB-3-1): 47.5%
growth inhibition (KB-V1): 63.8%

CC[C@@H]1C(=O)N(C)c2cnc(Nc3ccc(C(=O)NC4CCN(C)CC4)cc3OC)nc2N1C1CCCC1
growth inhibition (KB-3-1): 94.1%
growth inhibition (KB-V1): 95.8%

O=c1cc(-c2cccc3c2Sc2ccccc2S3)oc(N2CCOCC2)c1
growth inhibition (KB-3-1): 18.3%
growth inhibition (KB-V1): 23.6%

CNCc1ccc(-c2cc(-c3nc(-c4ccc(S(=O)(=O)C(C)C)cc4)cnc3N)on2)cc1
growth inhibition (KB-3-1): 60.8%
growth inhibition (KB-V1): 48.2%

CCc1cccc2c3c([nH]c12)C(CC)(CC(=O)O)OCC3 (stereo unspecified) [Etodolac]
growth inhibition (KB-3-1): 9.05%
growth inhibition (KB-V1): 32.7%

CN1CC2c3ccccc3Oc3ccc(Cl)cc3C2C1 (stereo unspecified) [Asenapine]
growth inhibition (KB-3-1): 8.22%
growth inhibition (KB-V1): 28.8%

CCN(CCCOc1ccc2c(Nc3cc(CC(=O)Nc4cccc(F)c4)[nH]n3)ncnc2c1)CCOP(=O)(O)O [Barasertib (AZD1152-HQPA)]
growth inhibition (KB-3-1): 73.7%
growth inhibition (KB-V1): 49.9%
